Measurements reported in PubChem BioAssay AID2101 (National Center for Advancing Translational Sciences (NCATS), 2009).
The campaign covered roughly 330,000 compounds. About 300 (0.091%) were called active. This list was built around the results that the source calls inconclusive (neither active nor inactive); the mix of calls is not that of the screen. The call rests on the fitted dose curve; in most records, active means well fitted inhibition curve with a large enough effect; inconclusive means small, poorly fitted or top-dose-only effect, or effect the other way, or another doubt; inactive means no such curve, though single readings can be large or run the other way. No potency is given beside an inconclusive call; the fits are too rough.

biological target: Lysosomal acid glucosylceramidase (Homo sapiens) (UniProt P04062); experiment: qHTS Assay for Inhibitors and Activators of N370S glucocerebrosidase as a Potential Chaperone Treatment of Gaucher Disease; conditions: N370S GC spleen homogenate, 4MU-glucoside fluorescence; activity change, negative = inhibition: at 59.4 µM (top of the series) unless noted;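 on activity change, negative = inhibition: 0% = full enzyme activity and -100% = no enzyme basal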
Potency means the concentration at half of the fitted maximal effect.

Structure (SMILES)	Potency	activity change, negative = inhibition
Cc1ccccc1NP(=O)(c1ccccc1)c1nc2ccccc2s1 (stereo not drawn)	inconclusive [activator, single point]	
O=C(CC(c1ccccc1)c1cc(Cl)ccc1O)NCCN1CCOCC1 (stereo not drawn)	inconclusive [inhibitor, single point]	
Oc1ccc2ccccc2c1CNc1ccc(Br)cn1	inconclusive [activator, single point]	
O=C(c1cnn2c(C(F)F)cc(C3CC3)nc12)N1CCc2ccccc2C1	inconclusive [activator, single point]	
COc1ccc(OC)c(-c2nc(C(=O)NCC3CCCO3)cc3c2[nH]c2ccccc23)c1 (stereo not drawn)	inconclusive [activator, partial curve]	
Cc1ccccc1NC(=O)Cc1nc(COC(=O)/C=C/c2ccccc2)cs1	inconclusive [activator, partial curve]	
COc1ccccc1OCC(=O)N/N=C/c1c(O)ccc2ccccc12	inconclusive [activator, partial curve]	
Cc1ccc(NC(=O)CCS(=O)(=O)c2ccc3c(c2)NC(=O)C(C)S3)cc1Cl (stereo not drawn)	active: 7.94 µM	
O=C(Nc1ccc(COc2ccccc2)cc1)Nc1cccc(C(=O)O)c1	inconclusive [inhibitor, full curve]	
Cc1ccc(C2=N/C(=C\c3cccs3)C(=O)N2Nc2ccccc2)cc1	inconclusive [activator, partial curve]	
COc1ccc(C(=O)Cn2cnc3ccccc3c2=O)cc1	inactive	
Cc1c(OC(C)C(=O)NCc2ccncc2)ccc2c3c(c(=O)oc12)CCC3 (stereo not drawn)	inconclusive [activator, single point]	
O=C(CN(C(=O)CNC(=O)c1cccs1)c1ccccc1F)NC1CCCCC1	inconclusive [inhibitor, partial curve]	
Cc1ccc(-n2cc3c(-c4cccc(Br)c4)nnc(C)c3n2)cc1	inconclusive [activator, partial curve]	
O=c1c(-c2nc3ccccc3s2)cccn1Cc1ccccc1	inconclusive [activator, partial curve]	
O=Cc1ccc(C(=O)OCC(=O)N2CCCC2)cc1	inactive	
CCCNc1nc2nc3ccccn3c(=O)c2cc1C(=O)NCCN1CCOCC1	inconclusive [activator, single point]	
Cc1cccc(NC(=O)NNC(=O)c2ccc3ccccc3c2O)c1	inconclusive [activator, full curve]	
Oc1ccc(Nc2nc(-c3ccc(O)cc3)cs2)cc1	active: 15.8 µM	
C1CCC(Nc2nnnn2C2CCCCC2)CC1	inconclusive [inhibitor, full curve, poor fit]	
Cc1ccc(C(=O)C[n+]2ccc(-c3nnc4n3CCC4)cc2)cc1	inactive	
Cn1cccc1C(=O)NC(=O)COC(=O)CC12CC3CC(CC(C3)C1)C2	inactive	
Cc1nn2c(N3CCN(C)CC3)cc(C(C)(C)C)nc2c1-c1ccccc1	inconclusive [inhibitor, partial curve]	

Structure (SMILES)	Potency	activity change, negative = inhibition
O=C1c2ccccc2NC(c2ccc(O)cc2)N1Cc1ccco1 (stereo not drawn)	inconclusive [inhibitor, full curve, poor fit]	
O=C(CN1CCCCC1)Nc1ccc(NC(=O)c2ccc(Cl)cc2)cc1Cl	inactive	
CC(=O)Nc1ccc(NC(=S)NC(=O)c2ccc([N+](=O)[O-])cc2)cc1	inactive	
COCCCn1c(=NC(=O)c2ccncc2)c(C#N)cc2c(=O)n3cccc(C)c3nc21	inconclusive [activator, full curve]	
CCC(=O)N1CCN=C1SCc1ccccc1	inconclusive [inhibitor, full curve, poor fit]	
CCc1cc(=O)oc2c(CNCc3ccccc3F)c(O)c(Cl)cc12	inconclusive [activator, partial curve]	
O=C(Nc1cc([N+](=O)[O-])ccc1F)C1CC1	inconclusive [inhibitor, partial curve, poor fit]	
COc1cccc(C(=O)Nc2cccc(OC(C)=O)c2)c1		inconclusive: 37.6% [activator]
CCCn1c(/C=C/c2ccccc2)nc2ccccc21	inactive	
COCCN(Cc1cc2cc(C)ccc2n2nnnc12)C(=S)Nc1ccccc1C	inconclusive [activator, full curve]	
COc1cc(OC)c(OC)cc1CNc1cc(C)ccc1OC	inactive	
CCCCCCCCCCCCCCCC[n+]1cccc2ccccc21	inconclusive [inhibitor, single point]	
Cc1cccc(CNc2ccnc(-c3ccoc3)n2)c1	inactive	
Cc1ccc(C)c(OCCSc2nnc(-c3cccnc3)n2N)c1	inconclusive [inhibitor, single point]	
C=C(C)COc1ccc2c(C)c(CCC(=O)NC3CC3)c(=O)oc2c1	inactive	
CCCCc1ccc(-c2nc(N)n[nH]2)cc1	inconclusive [inhibitor, full curve, poor fit]	
C[N+]1(CCOc2ccc([N+](=O)[O-])cc2)CCOCC1	inconclusive [inhibitor, full curve, poor fit]	
O=C(c1ccccc1Oc1ccccc1)N1CCN(c2ccc(F)cc2)CC1	inconclusive [inhibitor, full curve, poor fit]	
COc1cc(C(=O)O[C@@H]2CC3CC[C@]2(C)C3(C)C)ccc1O	inactive	
CC(C)(C)[C@@H]1C=C(C(=O)Nc2ccccc2)O[C@H](OCc2ccc(CO)cc2)C1	inconclusive [activator, partial curve]	
Oc1ccc2ccccc2c1C=NCc1ccccc1	inconclusive [activator, partial curve]	
CCOC(=O)C1=CN(C(=O)OC(C)(C)C)C(CN2C(=O)COCC2=O)C1 (stereo not drawn)	inactive	
O=C1/C(=C/c2cccs2)SC(=S)N1CCC(=O)N1CCCCC1CCO (stereo not drawn)	inconclusive [inhibitor, single point]	

Structure (SMILES)	Potency	activity change, negative = inhibition
CCOc1cc(CNCCO)cc(Br)c1OCc1ccccc1	inconclusive [inhibitor, partial curve]	
Cc1ccccc1OCC(=O)NS(=O)(=O)c1ccc(Cl)cc1	inconclusive [inhibitor, partial curve, poor fit]	
COc1ccc(N2C(=O)C(Cl)=C(N(CCO)Cc3ccccc3)C2=O)cc1	inactive	
COc1ccccc1NC(=O)COC(=O)c1ccccc1OCC(=O)Nc1ccc(SC(F)F)cc1	inconclusive [activator, partial curve]	
Nc1ccc(Nc2ccccc2)c(Cl)c1	inactive	
O=C(O)c1nn(CCOc2ccc(Br)cc2)c(=O)c2ccccc12	inconclusive [activator, single point]	
Cc1cc2cc(CN(CC3CCCO3)C(=S)Nc3ccccc3)c(=O)[nH]c2cc1C (stereo not drawn)	inconclusive [activator, partial curve]	
COC(=O)/C(C#N)=C/c1c(N2CCCCCC2)nc2c(C)cccn2c1=O	inconclusive [activator, partial curve]	
COc1ccccc1N(CC(=O)NC1CCCC1)C(=O)CNC(=O)c1cccs1	inconclusive [inhibitor, partial curve]	
COc1ccccc1C(CCN(Cc1cccs1)C(C)=O)c1ccco1 (stereo not drawn)	inactive	
CCOC(=O)c1cc(-c2ccccc2)sc1NC(=S)Nc1cc(C)ccn1	inconclusive [activator, partial curve]	
Cc1ccc2nc(-c3ccc(-c4ccccn4)s3)cn2c1	inconclusive [activator, single point]	
Cc1nn(C2CCS(=O)(=O)C2)c2nc(C3CC3)cc(C(=O)Nc3ccc(C(N)=O)cc3)c12 (stereo not drawn)	inconclusive [inhibitor, partial curve, poor fit]	
Cc1ccc(NC(=O)N2CCSc3ccccc32)cc1	inconclusive [activator, partial curve, poor fit]	
C=C(C)c1cccc(C(C)(C)NC(=O)Nc2nnc(C(C)C)s2)c1	inconclusive [activator, partial curve]	
COc1ccc(OC)c(C(C(=O)NC2CCCCC2)N(C(=O)c2snc(C(N)=O)c2N)c2ccccc2OC)c1 (stereo not drawn)	inconclusive [activator, single point]	
COc1ccc(OCc2cc(C(=O)N3CCC(c4ccccc4)CC3)no2)c(Cl)c1	inconclusive [inhibitor, single point]	
C[C@@H](C(=O)N[C@@H](CO)Cc1ccccc1)[C@H]1C[C@]1(C)[C@H](NC(=O)OCc1ccccc1)c1ccccc1	inconclusive [inhibitor, partial curve]	
Cc1cc(C2=NNC(=Nc3ccc(S(=O)(=O)N4CCOCC4)cc3)SC2)c(C)n1C	inactive	
Cc1ccc(S(=O)(=O)/N=C(/Nc2cccc(C(=O)O)c2)c2ccccc2)cc1	inconclusive [inhibitor, single point]	
COc1ccc(/C=C(/NC(=O)c2ccccc2OC)C(=O)Nc2ccc(C(=O)O)cc2)cc1	inconclusive [activator, single point]	
COc1nnc(-c2ccccc2)s1	inconclusive [inhibitor, full curve, poor fit]	
